In PubChem BioAssay AID1347073 (National Center for Advancing Translational Sciences (NCATS), 2019):
The campaign covered roughly 45,000 compounds. About 200 (0.44%) were called active. Inconclusive results (about 7%) are left out. Calls follow the shape of the dose curve; as a rule, active = well fitted activation curve with a large enough effect; inconclusive = small, poorly fitted or top-dose-only effect; inactive = no such curve, though single readings can be large or run the other way. Some of the results follow.
Potency is read from the fitted curve at half-maximal effect.

Assay: qHTS of TDP-43 Inhibitors: NCGC Sytravon Library Screen; also: nearly all actives have a fitted effect of over 55% in size; as to growth rescue (activation): 0% is about no effect
Conditions: yeast TDP-43 toxicity rescue, BacTiter-Glo growth, 24 h; series mostly up to 46.1 µM; growth rescue (activation): at the top concentration
How it was run: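 TDP-43-expressing yeast, pregrown in raffinose, seeded at OD600 0.02 in galactose medium with compound for 24 hr at 30 deg C. Growth read by BacTiter-Glo luminescence, so rescue of toxicity appears as activation.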
In the case of `COc1cccc(C(O)c2nc(-c3cncnc3)cs2)c1` (stereo not drawn), the “growth rescue (activation)” value was inactive: 14.9%. For `O=C1C=C(c2cccs2)C[C@H](c2ccccc2)[C@H]1n1nnc([N+](=O)[O-])n1`, the “growth rescue (activation)” value was inactive: -67%. With `CCN(CC)c1ccc(N=Nc2nn(C)c(C)c2[N+](=O)[O-])cc1` the “growth rescue (activation)” value was inactive: 8.79%. In the case of `O=C1CC(c2ccccc2)Sc2nc(-c3ccccc3)c(-c3ccccc3)n21` (stereo not drawn), the “growth rescue (activation)” value was inactive: 21.1%. In the case of `COc1ccc(C(=O)NCc2ncccc2C)cc1OC1CCN(C(C)=O)CC1`, the “growth rescue (activation)” value was inactive: 7.26%. With `CCCn1cnc2cc(NCc3ccc(Br)cc3)ccc21` the “growth rescue (activation)” value was inactive: 6.77%. With `COc1ccc(/C=N/NC(=O)CNC(=O)c2ccncc2)cc1` the “growth rescue (activation)” value was inactive: 15.2%. For `Clc1cccc(COn2c(-c3ccc(Cl)cc3Cl)nc3ncccc32)c1`, the Potency was active: 25.1 µM. In the case of `CNc1ncnc2c1ncn2[C@H]1CN(Cc2ccc(OC)cc2)C[C@@H](CO)O1`, the “growth rescue (activation)” value was inactive: 8.11%. For `CCOC(=O)c1c(C)[nH]c(C(=O)COC(=O)c2ccco2)c1C`, the “growth rescue (activation)” value was inactive: 6.96%. For `Cn1cccc1C(=O)NCCc1ccccc1`, the “growth rescue (activation)” value was inactive: 1.29%. With `COc1ccc(C(=O)NNC(=O)C2CCN(S(=O)(=O)c3ccc(C)cc3)CC2)cc1` the “growth rescue (activation)” value was inactive: -7.9%. In the case of `Cc1ccc2[nH]c(CSc3ccccc3)cc(=O)c2c1`, the “growth rescue (activation)” value was inactive: -2.37%. In the case of `CCCn1c(=O)c2c(nc3n2CCS3)n(C)c1=O`, the “growth rescue (activation)” value was inactive: 12.6%. In the case of `CC(C)CCNC(=O)CN(Cc1ccccc1)C(=O)CCC(=O)Nc1nccs1`, the “growth rescue (activation)” value was inactive: -0.503%. In the case of `COCCCNC(=O)Cn1cnc2sc(C)c(S(=O)(=O)N3CCN(c4ncccn4)CC3)c2c1=O`, the “growth rescue (activation)” value was inactive: 5.38%. With `CN(C)c1ccc(/C=N/n2c(-c3cccnc3)n[nH]c2=S)cc1` the “growth rescue (activation)” value was inactive: 0.0231%. For `COc1ccc(CN2CCC(n3nccc3NC(=O)C3CC3)CC2)cc1O`, the “growth rescue (activation)” value was inactive: 7.46%. In the case of `O=C(C1=C(c2ccccc2)C(=O)c2ccccc2C1=O)c1ccccc1`, the “growth rescue (activation)” value was inactive: 4.76%. In the case of `CCC1Oc2ccc(C)cc2N(CC(=O)NC2CCCCC2)C1=O` (stereo not drawn), the “growth rescue (activation)” value was inactive: 5.99%. In the case of `CCOc1ccc(S(=O)(=O)n2cc(F)c(=O)[nH]c2=O)cc1`, the “growth rescue (activation)” value was inactive: 2.6%. With `COc1cccc(-c2nnc(SCC3CNC(=O)O3)n2-c2ccc(Cl)cc2)c1` (stereo not drawn) the “growth rescue (activation)” value was inactive: -2.01%. For `CN1CCN(C(=S)c2cn(CCOc3ccccc3)c3ccccc23)CC1`, the “growth rescue (activation)” value was inactive: -2.59%. In the case of `CCN(CC(=O)Nc1ccc(OC)cc1)CC(=O)Nc1ccc(Br)cc1F`, the “growth rescue (activation)” value was inactive: -2.91%. With `CCn1cc([N+](=O)[O-])c(C(=O)NCc2ccc3c(c2)OCO3)n1` the “growth rescue (activation)” value was inactive: 11.2%. In the case of `Cc1ccc(NC(=O)c2cnccn2)cc1S(=O)(=O)N1CCCCCC1`, the “growth rescue (activation)” value was inactive: 32.8%. In the case of `CCCn1c(SCC(=O)NC2CCCCC2)nnc1-c1cccnc1`, the “growth rescue (activation)” value was inactive: 2.86%. With `CCOc1ncccc1C(=O)Nc1ccc(S(=O)(=O)N2CCCC2)cc1` the “growth rescue (activation)” value was inactive: 3.84%. For `COC(=O)C1=C(C)NC(=O)C1(NC(=O)c1cccnc1)C(F)(F)F` (stereo not drawn), the “growth rescue (activation)” value was inactive: 21.8%. With `CCOC(=O)CCC(NC(=O)CCCC(=O)NC(CCC(=O)OCC)C(=O)OCC)C(=O)OCC` (stereo not drawn) the “growth rescue (activation)” value was inactive: 14.7%. For `Cn1c(CCCNC(=O)c2ccco2)nc2ccccc21`, the “growth rescue (activation)” value was inactive: 6.07%. In the case of `CN(C)S(=O)(=O)c1ccc(NC(=O)CCNC(=O)c2ccco2)cc1`, the “growth rescue (activation)” value was inactive: 7.69%. In the case of `CCOc1ccc2[nH]c(=O)c(CN(CCCO)S(=O)(=O)c3ccc(F)cc3)cc2c1`, the “growth rescue (activation)” value was inactive: 17.4%. For `O=C(CC1C(=O)NCCN1Cc1ccc(F)cc1Cl)NC1CCCCCCC1` (stereo not drawn), the “growth rescue (activation)” value was inactive: 0.573%. In the case of `Cc1ccc(C(=O)Nc2ccc3c4c(cccc24)CC3)cc1[N+](=O)[O-]`, the “growth rescue (activation)” value was inactive: 19.6%. In the case of `CCN(CC)C(=O)c1sc(NC(=O)C(C)C)c(C#N)c1C`, the “growth rescue (activation)” value was inactive: -5.2%. In the case of `Cc1cc(C(=O)NCc2ccccc2F)c2ccccc2n1`, the “growth rescue (activation)” value was inactive: 16.5%. In the case of `CCn1c(SCC(=O)N2CCN(C)CC2)nc2c1c(=O)n(C)c(=O)n2C`, the “growth rescue (activation)” value was inactive: 3.09%. In the case of `COC(=O)Cc1[nH]n(-c2nc3ccccc3s2)c(=O)c1C(C)=Nc1ccc(C)cc1`, the “growth rescue (activation)” value was inactive: -3.26%. For `CCc1nc2ccc(C(=O)NCc3ccc(OC)cc3)cn2c1N(C)C(=O)Cc1ccccc1`, the “growth rescue (activation)” value was inactive: -11.1%. For `c1ccc(CN2CCC(Nc3nc(-c4cccs4)nc4ccccc34)CC2)cc1`, the “growth rescue (activation)” value was inactive: 17.6%. With `CCOC(=O)Cc1csc(NS(=O)(=O)c2ccc(OC)cc2)n1` the “growth rescue (activation)” value was inactive: -3.75%. For `CCN(CC)c1ccc(/C=N/N2C(C)CCCC2C)c(O)c1` (stereo not drawn), the “growth rescue (activation)” value was inactive: 7.11%. For `O=C(NC1CCCCC1)c1cc(N2C(=O)CCC2=O)ccc1Cl`, the “growth rescue (activation)” value was inactive: -12%. With `CCCCNC(=O)c1ccc2nc(CC)c(N(CCC(C)C)CCN(C)C)n2c1` the “growth rescue (activation)” value was inactive: 7.18%. With `O=C(Nc1nncs1)c1ccc2c(c1)OCO2` the “growth rescue (activation)” value was inactive: -9.58%. For `O=C(CSc1nc(-c2cccs2)cc(C(F)(F)F)n1)Nc1cc(OCC(F)(F)C(F)F)cc([N+](=O)[O-])c1`, the “growth rescue (activation)” value was inactive: 5.12%. With `CN(C(=O)CN1C(=O)NC2(CCc3ccccc32)C1=O)C1CCCCC1` (stereo not drawn) the “growth rescue (activation)” value was inactive: 11.5%. With `OCCNc1nc(Nc2cccc(O)c2)nc2ccccc12` the “growth rescue (activation)” value was inactive: 9.19%. With `CCc1nnc(NC(=O)c2oc3ccccc3c2COC(C)C)s1` the “growth rescue (activation)” value was inactive: 16.2%. For `COC(=O)c1sccc1NC(=O)CSCCc1ccccn1`, the “growth rescue (activation)” value was inactive: 3.3%. For `COc1ccc(-c2cc(-c3ccc(O)cc3)nc(N)c2C#N)cc1OC`, the “growth rescue (activation)” value was inactive: 3.18%. In the case of `COc1ccc(N(C(=O)Cn2nnc(-c3ccc(F)cc3)n2)C(C)C(=O)NC2CCCC2)cc1` (stereo not drawn), the “growth rescue (activation)” value was inactive: -19.5%. In the case of `Cc1ccsc1/C=N/NC(=O)CN1CCN(Cc2ccccc2)CC1`, the “growth rescue (activation)” value was inactive: 9.41%. For `CC(=O)Nc1ccc(S(=O)(=O)NC2(C(F)(F)F)C(=O)Nc3c2c(=O)[nH]c(=O)n3Cc2ccccc2)cc1` (stereo not drawn), the “growth rescue (activation)” value was inactive: -7.05%. With `Cc1sc2ncnc(N3CCN(C(=O)c4ccco4)CC3)c2c1C` the “growth rescue (activation)” value was inactive: 27%. With `CON/C=N/C(=S)Nc1ncc(C(F)(F)F)cc1Cl` the “growth rescue (activation)” value was inactive: -0.572%. In the case of `S=c1[nH]c(-c2ccccc2)cn1/N=C/c1ccncc1`, the “growth rescue (activation)” value was inactive: -4.4%. For `CCOC(=O)c1cc(-c2ccccc2)sc1NC(=O)CC`, the “growth rescue (activation)” value was inactive: -1.95%. In the case of `Cc1cccc(-n2ccc(=O)c(C(=O)O)n2)c1`, the “growth rescue (activation)” value was inactive: -15.3%. With `Cc1ccc(-n2c(SCC(=O)N3Cc4ccccc4CC3C(=O)O)nnc2-c2cccnc2)c(C)c1` (stereo not drawn) the “growth rescue (activation)” value was inactive: 0.259%. For `CC(=O)Nc1cc(-c2cccc(C(=O)N(C)C)c2)cn2c(-c3ccc(F)cc3)cnc12`, the “growth rescue (activation)” value was inactive: -1.1%. In the case of `CCN(CC)C(=O)CC(c1ccc(F)cc1)c1ccc(OC)cc1` (stereo not drawn), the “growth rescue (activation)” value was inactive: 22.1%. For `O=C(COC(=O)c1ccc2c(c1)OCCO2)Nc1cc(S(=O)(=O)N2CCOCC2)ccc1Cl`, the “growth rescue (activation)” value was inactive: 5.33%. In the case of `CCCn1c(=O)[nH]c(=O)c2c1nc(-c1ccc(OC(F)F)c(OC)c1)n2CCOC`, the “growth rescue (activation)” value was inactive: -7.28%. For `Cc1cccc(Nc2c(-c3ccc(O)cc3)nc3ncccn23)c1`, the “growth rescue (activation)” value was inactive: -2.62%. With `O=C(Nc1cccnc1)c1cc(-c2ccc(Cl)cc2Cl)on1` the “growth rescue (activation)” value was inactive: 10.3%. In the case of `COc1ccccc1Nc1ccc(C(=O)O)cc1[N+](=O)[O-]`, the “growth rescue (activation)” value was inactive: 3.26%.
